Target: human IL-4 + human IL-13 (both cytokines added together)
Assay: cell-based or functional assay

IC50 of TF-1 proliferation inhibition assay (IL-4 + IL-13) [µg/mL] | Binder
0.07 | anti-IL-4/IL-13 IgG1 bispecific antibody (knobs-into-holes) (bispecific antibody) heavy 1: EVQLVESGGGLVQPGGSLRLSCAASGYTFTDYSMHWVRQAPGKGLEWVVWINTETGEPTYADSVKGRFTISLDNSKNTAYLQMNSLRAEDTAVYYCARGGIFYGMDYWGQGTLVTVSSASTKGPSVFPLAPSSKSTSGGTAALGCLVKDYFPEPVTVSWNSGALTSGVHTFPAVLQSSGLYSLSSVVTVPSSSLGTQTYICNVNHKPSNTKVDKKV[human IgG1 Fc with changes not printed] light 1: DIQMTQSPSSLSASVGDRVTITCKASQSVINDAAWYQQKPGKAPKLLIYYTSHRYTGVPSRFSGSGSGTDFTLTISSLQPEDFATYYCQQDYTSPWTFGQGTKVEIKRTVAAPSVFIFPPSDEQLKSGTASVVCLLNNFYPREAKVQWKVDNALQSGNSQESVTEQDSKDSTYSLSSTLTLSKADYEKHKVYACEVTHQGLSSPVTKSFNRGEC heavy 2: EVTLRESGPALVKPTQTLTLTCTVSGFSLSAYSVNWIRQPPGKALEWLAMIWGDGKIVYNSALKSRLTISKDTSKNQVVLTMTNMDPVDTATYYCAGDGYYPYAMDNWGQGSLVTVSSASTKGPSVFPLAPSSKSTSGGTAALGCLVKDYFPEPVTVSWNSGALTSGVHTFPAVLQSSGLYSLSSVVTVPSSSLGTQTYICNVNHKPSNTKVDKKV[human IgG1 Fc with changes not printed] light 2: DIVLTQSPDSLSVSLGERATINCRASKSVDSYGNSFMHWYQQKPGQPPKLLIYLASNLESGVPDRFSGSGSGTDFTLTISSLQAEDVAVYYCQQNNEDPRTFGGGTKVEIKRTVAAPSVFIFPPSDEQLKSGTASVVCLLNNFYPREAKVQWKVDNALQSGNSQESVTEQDSKDSTYSLSSTLTLSKADYEKHKVYACEVTHQGLSSPVTKSFNRGEC
0.05 | anti-IL-4/IL-13 IgG4 bispecific antibody (knobs-into-holes, S228P, wild-type R409) (bispecific antibody) heavy 1: EVQLVESGGGLVQPGGSLRLSCAASGYTFTDYSMHWVRQAPGKGLEWVVWINTETGEPTYADSVKGRFTISLDNSKNTAYLQMNSLRAEDTAVYYCARGGIFYGMDYWGQGTLVTVSSASTKGPSVFPLAPCSRSTSESTAALGCLVKDYFPEPVTVSWNSGALTSGVHTFPAVLQSSGLYSLSSVVTVPSSSLGTKTYTCNVDHKPSNTKVDKRVESKYGPPCPPCPAPEFLGGPSVFLFPPKPKDTLMISRTPEVTCVVVDVSQEDPEVQFNWYVDGVEVHNAKTKPREEQFNSTYRVVSVLTVLHQDWLNGKEYKCKVSNKGLPSSIEKTISKAKGQPREPQVYTLPPSQEEMTKNQVSLSCAVKGFYPSDIAVEWESNGQPENNYKTTPPVLDSDGSFFLVSRLTVDKSRWQEGNVFSCSVMHEALHNHYTQKSLSLSLGK light 1: DIQMTQSPSSLSASVGDRVTITCKASQSVINDAAWYQQKPGKAPKLLIYYTSHRYTGVPSRFSGSGSGTDFTLTISSLQPEDFATYYCQQDYTSPWTFGQGTKVEIKRTVAAPSVFIFPPSDEQLKSGTASVVCLLNNFYPREAKVQWKVDNALQSGNSQESVTEQDSKDSTYSLSSTLTLSKADYEKHKVYACEVTHQGLSSPVTKSFNRGEC heavy 2: EVTLRESGPALVKPTQTLTLTCTVSGFSLSAYSVNWIRQPPGKALEWLAMIWGDGKIVYNSALKSRLTISKDTSKNQVVLTMTNMDPVDTATYYCAGDGYYPYAMDNWGQGSLVTVSSASTKGPSVFPLAPCSRSTSESTAALGCLVKDYFPEPVTVSWNSGALTSGVHTFPAVLQSSGLYSLSSVVTVPSSSLGTKTYTCNVDHKPSNTKVDKRV[human IgG4 Fc with S228P T366W (EU numbers) not printed] light 2: DIVLTQSPDSLSVSLGERATINCRASKSVDSYGNSFMHWYQQKPGQPPKLLIYLASNLESGVPDRFSGSGSGTDFTLTISSLQAEDVAVYYCQQNNEDPRTFGGGTKVEIKRTVAAPSVFIFPPSDEQLKSGTASVVCLLNNFYPREAKVQWKVDNALQSGNSQESVTEQDSKDSTYSLSSTLTLSKADYEKHKVYACEVTHQGLSSPVTKSFNRGEC
